About 540 (0.36%) of roughly 150,000 compounds showed an effect of 50% or more. This is one part of the list.
test system: Plasmodium falciparum; experiment: Primary screen in NF54 nanoGlo assay, in single point, at 2uM, 72h; a lower Z score goes with more inhibition; assay type: functional, Erythrocyte; settings: timepoint 72 hour

SMILES | % Inhibition | Z score
O=C1OCC[C@@H]1N1CCN(C(=O)c2ccc(F)cc2)CC1 | -11% | 0.97
Cc1ccc(CN(C(=O)c2cnn(C(C)C)c2)C2CCCC2)s1 | -13% | 1.17
Cc1cc(C)n(CCC(=O)N2CCN(c3nonc3C)CC2)n1 | -7% | 1.19
CCCn1c(=O)c(C(=O)NC[C@H]2CCCO2)nn(-c2ccc(Cl)cc2)c1=O | 0% | 0.07
COCCn1c(C)cnc1[C@H]1CCN(C(=O)c2ccc(OC)c(F)c2)C1 | -8% | 1.13
Cc1cccnc1CN(CC1CCCO1)C1CCS(=O)(=O)C1 (stereo not drawn) | -11% | 1.1
O=C(CNC(=O)[C@H]1C[C@@H]1c1ccncc1)NC1CCCCC1 | 3% | -0.36
O=C(COc1ccccc1)Nc1ccc(C(c2ccccc2)(c2ccccc2)c2ccccc2)cc1 | -4% | 0.51
Cc1nc(C)c(CC(=O)Nc2cccc(Br)c2)c(=O)[nH]1 | -13% | 1.45
O=C(c1cccs1)N1CCC[C@H](c2nnc3ccccn23)C1 | 2% | -0.35
CC(C)C[C@H]1C(=O)N2C[C@@H](N(C)C)C[C@H]2CN1C(=O)Cc1ccsc1 | -10% | 1.17
OCc1cnccc1N1CCC[C@H](n2ccnc2)C1 | -12% | 1.52
CN(C)C(=NCCCOC1CCOCC1)N(C)C | 0% | 0.01
COCCc1nc(CN2CC[C@H](N(C)C)C2)n(Cc2cccc(C)c2)n1 | -15% | 1.93
Nc1cccc(Oc2c(F)c(F)c(Oc3cccc(N)c3)c(F)c2F)c1 | 2% | -0.23
c1ccc(-c2nnc(N3CC4(CCOCC4)[C@@H]4CCC[C@@H]43)s2)nc1 | 11% | -2.05
Cc1nnsc1CN(C)Cc1cncn1C(C)C | -6% | 1
O=C(NCC1CC1)c1ccc(CN2CCN(c3cccc(Cl)c3)CC2)o1 | -13% | 1.77
COc1ccc(OC)c(NC(=O)Cn2cnc3cc4c(cc32)OCCO4)c1 | -9% | 0.87
O=C(NC1CCN(C(=O)N2CCCCC2)CC1)c1ccc(O)c(Cl)c1 | 3% | -0.39
Cc1noc(C)c1CN1CCCS1(=O)=O | 12% | -1.18
CCN(CC)c1ncnc(Oc2ccc(F)cc2)c1N | -5% | 0.57

SMILES | % Inhibition | Z score
Cc1c(C(=O)N(Cc2ccncc2)Cc2cccs2)nnn1C | 2% | -0.44
C[C@H](NC(=O)c1nnn(C)c1C(F)(F)F)c1cscn1 | 30% | -1.45
COc1ccc(NC(=O)Cc2nc(Cc3cccc(C)c3)n[nH]2)cc1Cl | -1% | 0.14
CS(=O)(=O)c1ccc(C2(NC(=O)[C@H]3C[C@@H]3c3cccnc3)CCOC2)cc1 (stereo partly drawn) | -6% | 1.08
Oc1cccc(CC[C@H]2CCCCN2Cc2cscn2)c1 | -14% | 1.92
Cc1c[nH]c(CN(C)Cc2nccn2C(C)C)n1 | 11% | -1.94
Cc1cccnc1CN(C)C(=O)c1cc(-c2cn[nH]c2)nc2cc(Cl)ccc12 | -15% | 2.17
O=C(N[C@H]1CC[C@@H](CO)C1)c1ccnc(C2CC2)c1 | -3% | 0.4
O=S(=O)(NCC1CCCC1O)c1ccc2cn[nH]c2c1 (stereo not drawn) | -12% | 1.05
O=C(Nc1cnccn1)c1sccc1OC(F)F | -6% | 0.61
O=C(NCCCn1ccccc1=O)c1cccc(OC(F)F)c1 | -11% | 1.3
CCn1ncnc1[C@H](C)Nc1nc(C)nc(C)c1C | 0% | 0.03
O=C(N[C@H]1CNC[C@@H]1O)c1cn(C(c2ccccc2)c2ccccc2)nn1 | 0% | -0.02
CC(C)c1nc(N2CCCC2=O)sc1C(=O)NC1CCCCCCC1 | 2% | -0.22
CCC[C@]1(c2ccccc2)NC(=O)N(Cc2coc(-c3ccc(C)cc3C)n2)C1=O | -10% | 1.19
CCOc1ncccc1C(=O)NCc1ccc(N2CCCCC2)nc1 | -14% | 1.59
CC(C(C)S(C)(=O)=O)N(C)Cc1ccccn1 (stereo not drawn) | -5% | 0.69
C[C@@H](c1cccnc1)N(C)CC(=O)Nc1nccs1 | 9% | -1.03
O=S(=O)(c1ccccc1)N1CCc2nc(N3CCc4ccccc4C3)nc(Oc3cccc(F)c3)c2C1 | -9% | 1.59
CCCc1nc(C)c(CN[C@H]2CCC(=O)N(Cc3ccccc3)CC2)s1 | 7% | -1.33
Cc1cnc(CCNS(=O)(=O)C(C)C)n1C1CCC1 | -8% | 1.23
Cn1ccnc1CN1CCN(c2nc3nonc3nc2N2CCCCC2)CC1 | -8% | 1.06

— ChEMBL document CHEMBL4888484, “Replenishing the malaria drug discovery pipeline: Screening and hit evaluation of the MMV Hit Generation Library 1 (HGL1) against asexual blood stage Plasmodium falciparum ,using a nano luciferase reporter read-out” (2022)
